Reference: PubChem BioAssay AID1347073 (National Center for Advancing Translational Sciences (NCATS), 2019)
The campaign covered roughly 45,000 compounds. About 200 (0.44%) were called active. Inconclusive results (about 7%) are left out. The call rests on the fitted dose curve; in most records, active means well fitted activation curve with a large enough effect; inconclusive means small, poorly fitted or top-dose-only effect; inactive means no such curve, though single readings can be large or run the other way. This is one part of the list.

Assay: qHTS of TDP-43 Inhibitors: NCGC Sytravon Library Screen; further: 0% is about no effect; nearly all actives have a fitted effect of over 55% in size
Settings: yeast TDP-43 toxicity rescue, BacTiter-Glo growth, 24 h; series mostly up to 46.1 µM; growth rescue (activation): at the top concentration
Method in brief: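 TDP-43-expressing yeast, pregrown in raffinose, seeded at OD600 0.02 in galactose medium with compound for 24 hr at 30 deg C. Growth read by BacTiter-Glo luminescence, so rescue of toxicity appears as activation.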

SMILES | growth rescue (activation)
Nc1c(O)ccc2c1C(=O)c1ccccc1C2=O | inactive: -41.8%
O=C(/C=C/c1ccc(S(=O)(=O)NCc2ccco2)cc1)NCc1cccc(Cl)c1 | inactive: 8.13%
CCN1CCN(C(=O)c2cc3cc([N+](=O)[O-])ccc3oc2=O)CC1 | inactive: 16.5%
COc1ccccc1C(O)(C(=O)NN(C)c1ccccc1)c1ccccc1OC | inactive: 12.3%
Cc1cc(-n2c(C)cc(C(=O)CSc3nncn3C)c2C)no1 | inactive: 6.1%
CC1(C)Cc2nc(Cl)c(C(=O)O)cc2CO1 | inactive: -18.4%
COc1ccccc1/C=C/C=N/n1c(-c2ccc(F)cc2)n[nH]c1=S | inactive: 11.1%
CCOC(=O)C1(CCOc2ccccc2)CCN(Cc2cccn2-c2ncccn2)CC1 | inactive: 8.98%
NC(c1ccccc1)c1csc(NC(=O)NCC2CCCCC2)n1 (stereo unspecified) | inactive: 15.8%
CCOC(=O)Nc1ccc2c(c1)N(C(=O)CCN1CCOCC1)c1ccccc1S2 | inactive: -1.46%
CN(C)/C=C/c1onc(-c2c(F)cccc2Cl)c1C#N | inactive: -1.82%
CN(CC(=O)NCc1ccccc1Cl)CC(=O)Nc1cccc(F)c1 | inactive: 1.4%
COc1ccc(/C=C2\SC(=S)N(CCC(=O)Nc3ccccn3)C2=O)cc1OC | inactive: 11.4%
COC(=O)N/N=C/c1cc(Cl)cc(Cl)c1OCc1ccccc1F | inactive: 15.2%
Nc1nonc1-n1nnc(C(=O)N/N=C\c2cccc(Cl)c2)c1CN1CCOCC1 | inactive: 10.5%
O=S(=O)(NCC1CCCN(Cc2ccccc2O)C1)c1cccc2cccnc12 (stereo unspecified) | inactive: 2.37%
O=C(c1cc[n+]([O-])cc1)N1CCc2c([nH]c3ccccc23)C1c1ccccc1Cl (stereo unspecified) | inactive: -4.56%
COc1ccc(/C=C2\SC(=O)N(CCC(=O)N3CCCCC3)C2=O)cc1OC | inactive: -12.1%
CCOC(=O)C1(CCOC)CCN(Cc2ccc(C3CCCCO3)s2)CC1 (stereo unspecified) | inactive: -9.94%
Cc1cc(C)c2c(=O)[nH]c(SCc3ccccc3C)nc2n1 | inactive: -8.93%
CC(=O)CC1=NC(C)(C)Cc2ccccc21 | inactive: 20.8%
Cc1noc(NS(=O)(=O)c2ccc(NC(=O)c3ccccc3NS(=O)(=O)c3ccc(F)cc3)cc2)c1C | inactive: 2.9%

SMILES | growth rescue (activation)
Cn1c(CNc2ccc(F)cc2)nnc1SCC(=O)NNC(=O)Cc1ccccc1 | inactive: 12.5%
Cc1ccc(S(=O)(=O)Oc2ccccc2/C=C2\SC(=O)NC2=O)cc1 | inactive: 7.59%
CCc1nc(NCCCN2CCOCC2)c2oc3ccccc3c2n1 | inactive: 1.3%
Cc1c(NC(=O)Cc2noc3ccccc23)cccc1[N+](=O)[O-] | inactive: 14.9%
Cc1ccc(S(=O)(=O)/N=C2\SC(CC(=O)Nc3ccc(F)cc3)C(=O)N2c2ccccc2)cc1 (stereo unspecified) | inactive: 10.5%
COC(=O)c1[nH]c2ccc(C)cc2c1NS(=O)(=O)c1ccc(F)c(C)c1 | inactive: 28.3%
COc1ccc(NC(=O)N2CCCC2C(=O)NCc2ccc(C)cc2)cc1 (stereo unspecified) | inactive: -3.23%
CCOc1cc(CNCCCN2CCOCC2)ccc1OCC(=O)NC(C)(C)C | inactive: 4.31%
COCCn1c(SCC(=O)NC2CCCCC2)nnc1-c1ccncc1 | inactive: -8.03%
CCOc1ccc(C(=O)OCC(=O)NC(C)C)cc1 | inactive: -6.54%
Cc1cc(=O)[nH]c(SCC(=O)Nc2nonc2C)n1 | inactive: 7.42%
COc1cccc(-n2c(SCC(=O)Nc3ccc4c(c3)CCC4)nc3ccccc3c2=O)c1 | inactive: 2.78%
Cn1cnnc1SCC(=O)Nc1cc(S(=O)(=O)N2CCCCCC2)ccc1Cl | inactive: 3.37%
Cc1ccc(C(=O)NCC(=O)OCC(=O)Nc2cc(S(=O)(=O)N3CCOCC3)ccc2Cl)s1 | inactive: 15.4%
O=C(COc1ccc(S(=O)(=O)N2CCOCC2)cc1Cl)NCc1ccco1 | inactive: 11.8%
O=C(CSc1nnc(-c2ccc(O)cc2)o1)Nc1ccccc1 | inactive: 14%
COc1ccccc1NC(=O)COC(=O)c1cnc(C)cn1 | inactive: -1.36%
Cc1ccc(C(=O)N/N=C/C=C/c2ccccc2)o1 | inactive: 26.8%
CC(C)CN1C(=O)C(=O)N(CC(=O)NCc2ccc3c(c2)OCO3)C1=O | inactive: -6.02%
O=[N+]([O-])c1ccc2c(OCc3nnc(-c4ccccc4Br)o3)ncnc2c1 | inactive: -10.7%
Cc1cccc(C(=O)N2CCN(CCNC(=O)C(=O)Nc3ccc(F)cc3)CC2)c1 | inactive: 0.496%
Cc1sc2ncn(CC(=O)N3CCCC(C)C3)c(=O)c2c1S(=O)(=O)N1CCCCC1 (stereo unspecified) | inactive: -11%

SMILES | growth rescue (activation)
O=C(NNC1=NCCC1)c1cccc(S(=O)(=O)N2CCCC2)c1 | inactive: -4.23%
CCCSc1ncc(Cl)c(C(=O)N(Cc2cccc(Cl)c2)C2CCS(=O)(=O)C2)n1 (stereo unspecified) | inactive: 16.5%
Cc1c(OC(C(=O)O)c2ccccc2)ccc2c(-c3ccccc3)cc(=O)oc12 (stereo unspecified) | inactive: -15.2%
CNC(=S)N(CCc1c(C)[nH]c2ccc(F)cc12)Cc1ccco1 | inactive: 9.08%
CCN(C(=O)c1cc2c(=O)n3cccc(C)c3nc2s1)C1CCCCC1 | inactive: 22.6%
CCCC(=O)NC(c1ccc(OC)cc1)c1c(O)ccc2ccccc12 (stereo unspecified) | inactive: -7.69%
COc1ccc(N(CCC#N)C(=O)/C(C#N)=C\c2cccs2)cc1 | inactive: 0.667%
CCOC(=O)C1CCCN(S(=O)(=O)c2cc(Br)cc3c2N(C(C)=O)CC3)C1 (stereo unspecified) | inactive: -18.9%
CC1CN(CCCCN2C(=O)c3ccccc3C2=O)CC(C)O1 (stereo unspecified) | inactive: -3.24%
Cc1noc(/C=C/c2ccco2)c1S(=O)(=O)N1CCC(C(=O)Nc2ccc(Cl)cn2)CC1 | inactive: 3.65%
CC(OC(=O)CCCC(=O)Nc1ccccc1)C(=O)c1ccccc1 (stereo unspecified) | inactive: -15.5%
Cc1ccc(S(=O)(=O)NCCn2nc(C)cc2C)cc1 | inactive: 3.59%
O=S(=O)(c1ccc(Cl)cc1)N(CCCN1CCOCC1)Cc1cccs1 | inactive: 9.75%
COc1ccccc1C(NC(=O)C1CCCCC1)c1c(O)ccc2ccccc12 (stereo unspecified) | inactive: 16.4%
CCOc1ccc(C(=O)CCC(=O)NCC(=O)OCc2ccccc2)cc1OCC | inactive: -0.159%
COc1cccc(CNC(=O)CCCn2ncn3c(cc4occc43)c2=O)c1 | inactive: 8.88%
CC(C)C(C(=O)NCC1CCCO1)N(C(=O)CNS(=O)(=O)c1ccccc1)c1ccc(F)cc1 (stereo unspecified) | inactive: 1.15%
COc1cc(-c2nc(=S)[nH][nH]2)cc(OC)c1OC | inactive: -7.92%
c1ccc2c(N3CCCCC3)nc(N3CCCCC3)nc2c1 | inactive: 7.7%
CCOC(=O)c1ccc(NC(=O)Nc2c(C)n(C)n(-c3ccccc3)c2=O)cc1 | inactive: 7.13%
O=C(CN1CCN(c2ccccn2)CC1)Nc1cccc(S(=O)(=O)N2CCOCC2)c1 | inactive: -8.81%
O=C(Nc1cccnc1)c1cc(F)c(F)cc1Cl | inactive: 7.7%

SMILES | growth rescue (activation)
Cc1cc(C)nc(SCC(=O)N2CCCCC2)n1 | inactive: -26.7%
O=C1CCC(C(=O)N2CCC(CO)(Cc3ccc(Cl)cc3)CC2)=NN1 | inactive: 4.8%
COc1cccc(CN2CCN(C3CCN(c4ccccc4F)CC3)CC2CCO)c1 (stereo unspecified) | inactive: -3.07%
CCc1ccccc1Oc1nc(NCCOC)nc2cc(-c3ccccc3)sc12 | inactive: 17.5%
Cc1cc(C)c(S(=O)(=O)N2CCCC(C(=O)NCc3ccccn3)C2)c(C)c1 (stereo unspecified) | inactive: -15.4%
Cc1cc(C(C)(C)C)cc(C)c1COC(=O)c1cccnc1 | inactive: 19%
COc1ccccc1/C=N/NC(=O)c1sc(C)nc1C | inactive: 2.71%
COc1ccc2nc(NC(=O)c3cccc(OCc4c(C)noc4C)c3)sc2c1 | inactive: 17.1%
C/C(=N\N1CCN(Cc2ccccc2Cl)CC1)c1ccc(F)cc1 | inactive: 13.5%
N#Cc1cccc(NC(=O)COC(=O)c2cc(S(=O)(=O)Nc3ccccc3Cl)ccc2O)c1 | inactive: 2.77%
Cc1ccc(NC(=O)c2ccc(C(C)(C)C)cc2)cc1-n1cnnn1 | inactive: -6.01%
CC(=O)Oc1ccc(-n2c(=O)c3ccccc3c3ccccc3c2=O)cc1 | inactive: -1.3%
CCOC(=O)c1c(NC(=O)C(NCCN(C)C)c2ccccc2)sc2c1CCCC2 (stereo unspecified) | inactive: 3.26%
Cc1cccc(OCC(=O)NCCNC(=O)c2ccccn2)c1 | inactive: 8.33%
Cc1noc(C)c1CSCc1ccc(Cl)cc1 | inactive: 29.9%
Cc1ccccc1Nc1nnc(SCC(=O)c2ccc(O)cc2O)s1 | inactive: 37.8%
COc1ccc(NC(=O)C(NC(=O)c2ccc(=O)[nH]c2)c2ccccc2)cc1 (stereo unspecified) | inactive: 8.1%
Cn1c(=O)cc(SCC(=O)N2CCN(C3CCCCC3)CC2)c2ccccc21 | inactive: -16.4%
CCOc1cc(/C=C2/C(=N)N3N=C(C)SC3=NC2=O)ccc1OS(=O)(=O)c1ccc(C)cc1 | inactive: 13.6%
CN1c2cccc3cccc(c23)N(C)C1(C)C | inactive: 21.6%
CCOc1ccc(S(=O)(=O)N2CCC(C(=O)NCC3CCCO3)CC2)cc1C (stereo unspecified) | inactive: -1.5%
OCCC1CN(Cc2nc3ccccc3s2)CCN1CCc1ccccc1 (stereo unspecified) | inactive: -3.94%

SMILES | growth rescue (activation)
Cc1cc(C)c(C#N)c(SCc2ccc(C(=O)O)cc2)n1 | inactive: -11.3%
Cc1ccnc2nc(C(=O)OCC(=O)c3ccc(NC(=O)CC(C)C)cc3)nn12 | inactive: 5.69%
CC1=NN(c2nc(-c3ccc(C)cc3)cs2)C(=O)C1N=Nc1ccccc1O (stereo unspecified) | inactive: -10.1%
O=C(CCN1C(=O)/C(=C/c2cccs2)SC1=S)Nc1ccc(O)cc1 | inactive: -1.18%
CCc1nc2ccc(C(=O)Nc3cccc(OC)c3)cn2c1N(C)Cc1ccc(OC)cc1 | inactive: 8.12%
COc1cc2c(cc1NC(=O)CSc1nnc(Cc3cccs3)n1C)oc1ccccc12 | inactive: 6.79%
CC(C(=O)Nc1cccnc1)c1ccc([N+](=O)[O-])cc1 (stereo unspecified) | inactive: -6.44%
O=C(O)c1cccc(Cn2c(Cl)c(/C=N/NC(=O)c3ccc(O)cc3)sc2=O)c1 | inactive: -27.3%
CC(C)CNC(=O)NC(=O)COC(=O)c1ccccc1Sc1ccc(C(F)(F)F)cc1[N+](=O)[O-] | inactive: 18.1%
N#CC(C(=O)NCCc1ccccc1)c1nc2ccccc2nc1N1CCOCC1 (stereo unspecified) | inactive: 0.774%
O=S(=O)(Nc1nc2ccccc2s1)c1cnc(Cl)c(Br)c1 | inactive: 28.9%
Cc1cc(NC(=O)C(C)Oc2ccccc2)no1 (stereo unspecified) | inactive: 12.4%
Cc1ccccc1C(=O)NC(C(N)=O)P(=O)(OC(C)C)OC(C)C (stereo unspecified) | inactive: -5.44%
Cc1ccc(NC(=O)CN2C(=O)C3CC=C(Cl)CC3C2=O)cc1 (stereo unspecified) | inactive: -7.53%
CN(C(=O)CSc1cc(C(=O)c2nccn2C)c2ccccc2n1)c1ccccc1 | inactive: 23.6%
COc1ccc(C2CC(c3ccc(Br)cc3)=NN2C(=S)Nc2ccccc2)cc1 (stereo unspecified) | inactive: 27.3%
O=C(N/C=C\n1cnc2cc(C(F)(F)F)ccc21)c1ccc([N+](=O)[O-])cc1 | inactive: 13.6%
O=C(Nc1ccc(F)c(Cl)c1)c1csc([C@@H]2O[C@H](CO)[C@H](O)[C@H](O)[C@H]2O)n1 | inactive: 7.97%
